# Over roughly 33,000 sequences, “E-score (-0.5 to 0.5)” has its median near -0.04; the highest 2% begin near 0.36. The list shows a part of the results.
# Target: T1, Hmlalpha2 (UniProt P0CY09)
# T1 sequence: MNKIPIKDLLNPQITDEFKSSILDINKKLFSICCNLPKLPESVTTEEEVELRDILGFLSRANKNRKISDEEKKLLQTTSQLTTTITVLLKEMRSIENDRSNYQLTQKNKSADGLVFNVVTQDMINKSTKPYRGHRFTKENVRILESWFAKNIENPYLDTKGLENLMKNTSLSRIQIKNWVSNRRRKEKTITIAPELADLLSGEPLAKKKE
# Assay: PBM E-score (8-mer binding enrichment) (E-score (-0.5 to 0.5)); higher = stronger / more preferred TF binding; most listed sequences are background and not binding sites
# Conditions: protein concentration: 200 nM; construct: GST-full length
# Description: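 Universal 'all 10-mer' protein binding microarrays (Agilent AMADID 015681) probed with GST-tagged S. cerevisiae TFs (full-length or DBD) made by in vitro transcription/translation (PURExpress), about 100-200 nM. Bound TF was detected with fluorescent anti-GST. Each ungapped 8-mer (which stands for itself and its reverse complement) is scored by the PBM enrichment score (E-score), a modified Wilcoxon-Mann-Whitney statistic from -0.5 to +0.5, computed with the Universal PBM Analysis Suite. Scale: above 0.35 generally sequence-specific binding.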
row,Sequence,PBM E-score
1,CCCATCCA,-0.0462
2,CAAAGCAA,0.138
3,CGAGCGGC,-0.125
4,GCCAAACC,-0.282
5,GTGAGACA,-0.267
6,ATCCTATC,-0.177
7,AGTCCTTC,-0.206
8,ATAGGAAA,0.0311
9,ATAATTTC,-0.00586
10,GCTCCTCA,-0.383
11,AGTCAGTA,0.0664
12,TATACTCA,0.203
13,CCGAAGAA,-0.226
14,ACGAACCC,-0.164
15,CTCGTATC,-0.0652
16,AATCACGA,-0.00705
17,CGGTTTCC,-0.188
18,CAACAGTC,-0.184
19,CCCTAGGA,-0.26
20,AGGTACAT,0.288
21,CGTGCATA,0.086
22,TTAGATAA,-0.0444

row,Sequence,PBM E-score
1,TCGGACAA,-0.073
2,ATGGTCCA,-0.0321
3,ATAAGGTG,0.157
4,GACATCGC,-0.0415
5,CCCCATCC,-0.192
6,CACAAAAC,0.225
7,GAATTATC,0.0133
8,ATGTCCGC,-0.0726
9,CTGTCTGA,-0.162
10,TCTGTCAA,0.0538
11,TGAGCAAA,0.11
12,TCGATCAA,-0.00953
13,AGAACGCA,0.124
14,CAATAACA,0.239
15,CAAGCTGC,-0.145
16,CCAAGGAC,-0.222
17,AGTGCTAC,0.0795
18,AGAATTGC,-0.161
19,GCTCATCA,-0.0692
20,CCTACATC,-0.107
21,ACAGACAC,0.0876
22,GCCATCCC,-0.23

row,Sequence,PBM E-score
1,ACTATTCT,0.0244
2,CGTGCTTA,0.19
3,CAATATAC,0.131
4,CTCGCGTC,0.113
5,ACCGCATA,0.0308
6,CCGGCGTC,-0.0795
7,AGTTGACA,0.293
8,ACACCGAT,0.0503
9,GCGACTCA,-0.134
10,GAAAATTA,0.253
11,GGAACAAA,0.0948
12,CAGGCTCG,-0.0427
13,CTAACTAC,0.125
14,GTCCCAAA,-0.125
15,TCACGTGA,0.13
16,GTAGGACA,0.063
17,CCGACGGA,-0.187
18,CATTTGAC,0.024
19,ACGGCAAT,0.0808
20,CTTGAGCA,-0.0765
21,CCACGTCG,-0.134
22,AGAATCAC,-0.0349

row,Sequence,PBM E-score
1,ACAACGGG,0.095
2,GCTTACTA,0.157
3,ACTCACCG,-0.103
4,CCAGGCTA,-0.281
5,CGACTAGA,-0.0368
6,CGGAATCC,-0.281
7,CTCGTGCA,-0.126
8,CGCGATAC,0.12
9,AATCCATA,0.00815
10,CGTAGGAC,-0.212
11,GACACAAA,0.14
12,CCTTTCTA,0.0802
13,ACAAGAAA,0.207
14,ACCAGGAC,0.0306
15,AGGCGAGA,-0.285
16,AGAATGAG,0.0137
17,ACAGATCG,-0.025
18,AAGCCTAG,-0.0469
19,CTGCACGC,-0.165
20,TGAGACCA,0.0612
